From PubChem BioAssay AID1508642 (National Center for Advancing Translational Sciences (NCATS), 2021)
Hit rate of the full screen: of about 43,000 compounds, about 200 (0.47%) were called active. Not shown: some 12% with an inconclusive outcome. Calls come from the whole dose curve; as a rule, active = well fitted cell-killing curve with a large enough effect; inconclusive = small, poorly fitted or top-dose-only effect, or effect the other way; inactive = flat fitted curve, though single readings scatter. This is one part of the list.

Test: Cell viability qHTS assay in S16 Pmp22-F2sN cells; note: nearly all actives have a fitted effect of over 65% in size
Settings: S16 Pmp22-F2sN Schwann cells (luciferase reporters placed in the Pmp22 gene) viability, CellTiter-Glo, 24 h; series mostly up to 57.5 µM; activity change, negative = cytotoxicity: at the top concentration
Method in brief: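 Luminescence from CellTiter-Glo, read by CCD camera after a 15 min room-temperature incubation, served as the viability signal. Reporter Schwann cells (S16 Pmp22-F2sN) had been treated with pin-transferred compounds for 24 h at 37C.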
% is set by controls: 0 for no effect and ±100 for the full control effect; potency is the fitted concentration of half-maximal effect.

SMILES	activity change, negative = cytotoxicity	Potency
O=C(CCC(=O)c1ccc(F)cc1)Nc1ccc(Cl)cc1	inactive: 0.333%	–
O=C(CSc1n[nH]c(-c2ccccc2Cl)n1)NCc1ccc(F)cc1	inactive: -2.41%	–
COc1ccc(-c2nc3c(c(SC)n2)Cc2c(CO)cnc(C)c2O3)cc1	inactive: 12.9%	–
CCn1c(=O)c2cc(C(=O)NCCCN3CCN(C)CC3)sc2c2ccccc21	inactive: 11.8%	–
Cc1cc(C)cc(OCC(=O)Nc2c(C(=O)c3ccccc3)oc3ccccc23)c1	inactive: 10.8%	–
O=C(CCn1c(=O)c2cccn2c2cccnc21)Nc1ccccc1C(F)(F)F	inactive: 4.44%	–
CCC(=O)N1c2ccccc2CC1C(=O)NCc1cc(OC)ccc1OC (stereo unspecified)	inactive: 13.9%	–
CCN(C(=O)Cn1c(=O)n(-c2ccccc2)c(=O)c2ccc(C(=O)NCc3ccc4c(c3)OCO4)cc21)c1cccc(C)c1	inactive: 5.09%	–
CCOc1ccc(NC(=O)c2cc(S(=O)(=O)N3CCc4ccccc43)ccc2F)cc1	inactive: -24.3%	–
CC(C)c1ccc(NC(=O)c2cc(S(=O)(=O)N(C)C3CCCCC3)ccc2F)cc1	inactive: -11.6%	–
CCCCn1cnc2cc(NCc3ccc(OCC)cc3)ccc21	inactive: -4.47%	–
O=C(CC1C(=O)N(c2ccc(F)cc2)C(=O)N1Cc1ccc2c(c1)OCO2)Nc1ccc(Cl)cc1 (stereo unspecified)	inactive: 4.43%	–
Cc1ccc(-n2cc(C(=O)Oc3ccc(F)cc3)c3ccccc3c2=O)cc1	inactive: -2.11%	–
Cc1ccc2c(=O)cc(C(=O)Nc3ccc(S(=O)(=O)Nc4onc(C)c4C)cc3)oc2c1C	inactive: 6.43%	–
O=C(CSc1oc(-c2ccccc2)nc1S(=O)(=O)c1ccc(Cl)cc1)c1ccccc1	inactive: 3.25%	–
Cc1cc(C)nc(-n2nc(C)c3c2N(Cc2ccccc2)C(=O)CC3c2ccc(Cl)cc2)n1 (stereo unspecified)	inactive: -26.3%	–
Cc1ccc(NC(=O)Nc2nnc(SCC(=O)Nc3ccc(F)cc3F)s2)cc1	inactive: 0.198%	–
CCc1ccc(NC(=O)c2cc(S(=O)(=O)N3CCCCCC3)ccc2F)cc1	inactive: 15%	–
Cc1cccc(C)c1NC(=O)c1csc2c1CCCC2	inactive: 6.71%	–
COc1ccccc1NC(=O)C(=O)c1cc(C)n(-c2ccccc2F)c1C	inactive: -1.66%	–
O=C(NCCCc1nc2ccccc2n1Cc1cccc(Cl)c1)c1ccco1	inactive: 3.11%	–
CCCCN1CC(c2nc3ccccc3n2CCCCOc2ccc(C)cc2C)CC1=O (stereo unspecified)	inactive: -15.9%	–
CC(=O)OCc1cnc(C)c2oc(=O)c(C(=O)Nc3cccc(F)c3)cc12	inactive: 6.63%	–
COc1cc(Cl)c(C)cc1NC(=O)c1cc2ccc3cccnc3c2[nH]1	inactive: -1.25%	–

SMILES	activity change, negative = cytotoxicity	Potency
O=C(c1cc(=O)c2cc(Cl)ccc2o1)N(Cc1ccccc1)C1CCS(=O)(=O)C1 (stereo unspecified)	inactive: 16.3%	–
COc1ccc(NC(=O)CSc2nc3nc(C)c(Cc4ccc(C)cc4)c(C)n3n2)cc1OC	inactive: 0.24%	–
COc1ccc(Cl)cc1-n1nnc(-c2nc(-c3ccc4c(c3)OCO4)no2)c1C	inactive: -2.31%	–
CCCNC(=O)C1CCC(Cn2c(=O)c3sccc3n(Cc3ccccc3C)c2=O)CC1 (stereo unspecified)	inactive: 6.47%	–
Cc1nc(N2CCCC2)c2c(C(=O)Nc3cccc(Cl)c3C)c(C)oc2n1	inactive: -2.1%	–
Cc1ccc(-n2ncc3c(NCCCc4ccccc4)ncnc32)cc1	inactive: 1.41%	–
COc1cccc(NC(=O)c2oc3ccccc3c2NC(=O)c2ccc(C(F)(F)F)cc2)c1	inactive: 0.809%	–
O=C(CN1CCCN(Cc2ccc(Cl)cc2)S1(=O)=O)Nc1ccccc1F	inactive: 16.1%	–
COc1cccc2c1Oc1ncccc1N(C(=O)CCC(=O)NCc1ccc(N(C)C)cc1)C2	inactive: -0.452%	–
Cc1ccc(C)c(NC(=O)Cn2cc(C(=O)C3CCCCC3)c3ccccc32)c1	inactive: -2.93%	–
Cc1ccc2[nH]c3c(=O)n(CC(=O)N(C)c4cc(Cl)ccc4C)ncc3c2c1	inactive: 0.135%	–
O=C(c1ccc2c(c1)N(Cc1cccc(Cl)c1)C(=O)c1ccccc1S2(=O)=O)N1CCCCC1	inactive: -16.7%	–
CCOc1ccc(NC(=O)N2CC=C(c3c[nH]c4ccccc34)CC2)cc1	inactive: 3.08%	–
COc1ccc(-n2c(=O)c3c4c(sc3n(Cc3ccccc3)c2=O)CN(C(C)=O)CC4)cc1OC	inactive: 9.77%	–
COc1ccccc1NC(=O)c1ccc2c(Cl)c3c(nc2c1)CCCC3	inactive: 21.9%	–
CCCCOC(=O)CSc1nnc(-c2ccccc2)o1	inactive: -15.5%	–
Cc1ccc(C)c(N2CCN(C(=O)CN3CCSc4ccc(S(=O)(=O)N(C)C)cc43)CC2)c1	inactive: -1.45%	–
O=c1c2cccnc2n(Cc2ccccc2F)c(=O)n1Cc1ccccc1Cl	inactive: 14%	–
CC(=O)Nc1nonc1-c1nnc(SCC(=O)Nc2cc(C)cc(C)c2)n1C	inactive: 0.689%	–
COC(=O)c1ccc(Cl)cc1NC(=O)N1CCCn2nc(C)cc21	inactive: 0.526%	–
COc1cc(OC)c(NC(=O)CCCn2nc(C)c3sc4ccccc4c3c2=O)cc1Cl	inactive: 0.398%	–
COc1nc(-c2ccc(C)cc2)ccc1-c1noc(-c2ccccc2Br)n1	inactive: 0.82%	–
COc1ccc(-c2oc3ncn4nc(-c5ccccc5Br)nc4c3c2-c2ccc(OC)cc2)cc1	inactive: 3.55%	–
Cc1oc2ncn(CC(C)C)c(=O)c2c1C(=O)N1CCN(c2ccc(F)cc2)CC1	inactive: 7.48%	–

SMILES	activity change, negative = cytotoxicity	Potency
COc1ccccc1CNc1ccc(-c2nc(C)no2)cc1[N+](=O)[O-]	inactive: -25.2%	–
COc1cccc(NC(=O)/C(C#N)=C\c2cn(Cc3ccc(C)cc3)c3ccccc23)c1	inactive: -4.7%	–
COc1cn(CC(=O)Nc2ccc(F)cc2)c(CN2CCCCC2)cc1=O	inactive: 16.8%	–
COc1cccc(CSc2nc3n(n2)C(c2cccs2)C(C(=O)Nc2ccccc2C)=C(C)N3)c1 (stereo unspecified)	inactive: -0.881%	–
CCOC(=O)c1c(N)n(-c2ccc(Cl)c(Cl)c2)c2nc3ccccc3nc12	inactive: 11.1%	–
Cc1cccc(Cn2c(CN3CCC(C(=O)NCc4cccnc4)CC3)cc3ccccc32)c1	inactive: -22.3%	–
Cc1ccc(NC(=O)Cn2c(=O)n(-c3ccc(Cl)c(Cl)c3)c(=O)c3c(C)c(C)sc32)c(C)c1	inactive: -14.7%	–
CC1=C(C(=O)Nc2ccccc2C)C(c2ccncc2)n2nc(SCc3ccccc3)nc2N1 (stereo unspecified)	inactive: 11%	–
Cc1ccc(OCCn2cc(C(=O)C3CCCCC3)c3ccccc32)cc1	inactive: -8.19%	–
CCOC(=O)c1ccc(NC(=O)CC2C(=O)N(c3cccc(OC)c3)C(=O)N2C2CCCCC2)cc1 (stereo unspecified)	inactive: -5.45%	–
CCN(CC)CCNC(=O)c1sc2nc3n(c(=O)c2c1C)CCCCC3	inactive: -3.8%	–
COc1ccc(OCC2c3cc(OC)c(OC)cc3CCN2C(=O)c2ccc(F)cc2)cc1 (stereo unspecified)	inactive: 3.04%	–
COc1ccc2cc3cc(C(=O)N4CCN(c5ccc(C(C)=O)cc5)CC4)sc3nc2c1Cl	inactive: -0.756%	–
Cc1ccc(-c2cn3c(n2)sc2cc(C(=O)NCCCN4CCCCC4)ccc23)cc1	–	active: 3.98 µM
CCOC(=O)c1c(C)oc2nc(C)nc(N3CCN(c4ccc(C(C)=O)cc4)CC3)c12	inactive: 4.88%	–
CC(C)(C)OC(=O)N1CCC(c2c(C(=O)NCc3ccc(F)cc3)cnn2-c2ccc(F)cc2)CC1	inactive: -14.1%	–
COc1cccc(C(=O)N(Cc2sccc2C)C2CCS(=O)(=O)C2)c1 (stereo unspecified)	inactive: 16.6%	–
Cc1cc(NC(=O)Cn2c(=O)nc(-c3ccccc3F)c3cc(Cl)ccc32)ccc1Br	inactive: 1.68%	–
O=S(=O)(NCc1nc2cccnc2n1Cc1ccc(F)cc1)c1ccc2c(c1)CCCC2	inactive: -6.97%	–
CCOC(=O)c1ccc(NC(=O)c2c(NCc3cccs3)sc3c2CCCCC3)cc1	inactive: 12.8%	–
Cc1ccc(S(=O)(=O)c2cn(C)c3cc(N4CCCCCC4)c(F)cc3c2=O)cc1	inactive: -1.28%	–
O=C(CCSCc1cnn(-c2ccccc2)c1-n1cccc1)NCc1ccccc1F	inactive: -16.2%	–
CCOc1ccc(NC(=O)c2cc3c(-c4ccccc4F)nn(C)c3s2)cc1	inactive: 4.35%	–
Cc1ccc(Cn2c(=O)n(-c3ccccc3)c(=O)c3ccc(C(=O)NCc4ccco4)cc32)cc1	inactive: -25.8%	–

SMILES	activity change, negative = cytotoxicity	Potency
Cn1c(SCc2ccc(F)cc2)nc2c([nH]c3ccccc32)c1=O	inactive: 7.13%	–
CCOC(=O)c1cccc(NC(=O)c2ccc3c(c2)nnn3C2CCCC2)c1	inactive: -3.02%	–
Cc1ccc(C2c3c(-c4ccccc4O)n[nH]c3C(=O)N2CCCO)cc1 (stereo unspecified)	inactive: -5.05%	–
O=C(NCCn1cc(SCc2ccc(F)cc2)c2ccccc21)c1c(F)cccc1F	inactive: 9.5%	–
Cn1cnc(S(=O)(=O)N2CCCC(C(=O)Nc3ccc(F)cc3Cl)C2)c1 (stereo unspecified)	inactive: 2.56%	–
Cc1ccc(Cn2c(C(=O)Nc3cccc(Cl)c3)cc3sccc32)cc1	inactive: 1.82%	–
Cn1nnnc1SCCNCc1ccccc1OCc1ccccc1F	inactive: -24.2%	–
CCCCc1cc(=O)oc2cc(C)c3c(C)coc3c12	inactive: -1.82%	–
COC(=O)c1ccc(NS(=O)(=O)c2ccc(-n3cccn3)cc2)cc1	inactive: 15.2%	–
COc1ccc2c(c1)CC(NC(=O)Nc1cc(Cl)ccc1OC)CO2 (stereo unspecified)	inactive: -9.14%	–
CSc1nc(C)cc(Nc2c(C)cc(C)cc2C)n1	inactive: -7.43%	–
COc1cccc(C(=O)Nc2ccc(Cl)c(-c3nc4ccccc4[nH]3)c2)c1	inactive: -14.8%	–
CC1=C(C(=O)OCc2ccc(C)cc2)C(c2ccccc2F)CC(=O)N1 (stereo unspecified)	inactive: -17.5%	–
Cc1ccc2c(=O)cc(C(=O)Nc3sc4c(c3C(=O)NCc3ccco3)CCC4)oc2c1	inactive: 5.34%	–
COc1ccc2c(c1)c(=O)c(C(=O)c1ccccc1)cn2CC(=O)Nc1ccc2c(c1)OCCO2	inactive: -17.2%	–
O=C(NCc1ccccc1F)C1CCN(c2nnc(-n3cccc3)s2)CC1	inactive: 6.37%	–
Cc1cccc(OCCSc2nc3ccccc3n2CC(=O)N2CCOCC2)c1	inactive: 0.488%	–
COc1ccccc1CNC(=O)c1ccc(CS(=O)(=O)c2c(Cl)cccc2Cl)o1	inactive: 19.6%	–
COc1cccc(-c2nc(S(=O)(=O)c3ccccc3)c(N3CCCCC3)o2)c1	inactive: -38.4%	–
CCC(C)NC(=O)CSc1nc2cc3c(cc2c(=O)n1CCCC(=O)NCCc1ccc(OC)c(OC)c1)OCO3 (stereo unspecified)	inactive: -0.905%	–
CCCn1c(=O)c2sccc2n2c(CCCC(=O)N3CCN(c4ccccc4OC)CC3)nnc12	inactive: 1.99%	–
CCOC(=O)c1c(C)[nH]c(C)c1S(=O)(=O)N(C)CC(=O)Nc1cc(Cl)ccc1C	inactive: 12.7%	–
CCOC(=O)c1ccc(N2C(=O)c3[nH]nc(-c4ccc(C)cc4)c3C2c2ccc(O)c(OCC)c2)cc1 (stereo unspecified)	inactive: -20.2%	–
COc1ccc2c(c1)c(=O)c(C(=O)c1ccc(C)c(C)c1)cn2CC(=O)Nc1ccc2c(c1)OCCO2	inactive: 0.329%	–
